B1: CCGAACA (DNA:RNA)
RNA: GGGAGACCGGAAUUCAGAUUGUCCCCGAACAUUAAAUCCCGUCGUAGCCACCA
DNA 1: CAATCTGAATTCCGGTCTCCC
DNA 2: TGGTGGCTACGACGGGATT
B2: AGAACGC (DNA:RNA)
RNA: B1 RNA with C25A, C26G, G27A, A29C, C30G, A31C
DNA 1: CAATCTGAATTCCGGTCTCCC
DNA 2: TGGTGGCTACGACGGGATT
B3: CUCCAGU (DNA:RNA)
RNA: B1 RNA with C26U, G27C, A28C, C30G, A31U
DNA 1: CAATCTGAATTCCGGTCTCCC
DNA 2: TGGTGGCTACGACGGGATT
B4: AAGGGCA (DNA:RNA)
RNA: B1 RNA with C25A, C26A, A28G, A29G
DNA 1: CAATCTGAATTCCGGTCTCCC
DNA 2: TGGTGGCTACGACGGGATT
B5: CCGCAAU (DNA:RNA)
RNA: B1 RNA with A28C, C30A, A31U
DNA 1: CAATCTGAATTCCGGTCTCCC
DNA 2: TGGTGGCTACGACGGGATT
B6: GGCUUGU (DNA:RNA)
RNA: GGGAGACCGGAAUUCAGAUUGUCCGGCUUGUUUAAAUCCCGUCGUAGCCACCA
DNA 1: CAATCTGAATTCCGGTCTCCC
DNA 2: TGGTGGCTACGACGGGATT
B7: UAUCCCC (DNA:RNA)
RNA: B1 RNA with C25U, C26A, G27U, A28C, A29C, A31C
DNA 1: CAATCTGAATTCCGGTCTCCC
DNA 2: TGGTGGCTACGACGGGATT
B8: CGGUCAC (DNA:RNA)
RNA: B1 RNA with C26G, A28U, A29C, C30A, A31C
DNA 1: CAATCTGAATTCCGGTCTCCC
DNA 2: TGGTGGCTACGACGGGATT
B9: GGUGUGG (DNA:RNA)
RNA: B6 RNA with C27U, U28G, U31G
DNA 1: CAATCTGAATTCCGGTCTCCC
DNA 2: TGGTGGCTACGACGGGATT
B10: AUUCCGU (DNA:RNA)
RNA: B6 RNA with G25A, G26U, C27U, U28C, U29C
DNA 1: CAATCTGAATTCCGGTCTCCC
DNA 2: TGGTGGCTACGACGGGATT
B11: GGUGGCU (DNA:RNA)
RNA: B6 RNA with C27U, U28G, U29G, G30C
DNA 1: CAATCTGAATTCCGGTCTCCC
DNA 2: TGGTGGCTACGACGGGATT
B12: UCAUGGA (DNA:RNA)
RNA: B1 RNA with C25U, G27A, A28U, A29G, C30G
DNA 1: CAATCTGAATTCCGGTCTCCC
DNA 2: TGGTGGCTACGACGGGATT
B13: CCGCGCG (DNA:RNA)
RNA: B1 RNA with A28C, A29G, A31G
DNA 1: CAATCTGAATTCCGGTCTCCC
DNA 2: TGGTGGCTACGACGGGATT
B14: CCUCCUC (DNA:RNA)
RNA: B1 RNA with G27U, A28C, A29C, C30U, A31C
DNA 1: CAATCTGAATTCCGGTCTCCC
DNA 2: TGGTGGCTACGACGGGATT
B15: AGUCACC (DNA:RNA)
RNA: B1 RNA with C25A, C26G, G27U, A28C, A31C
DNA 1: CAATCTGAATTCCGGTCTCCC
DNA 2: TGGTGGCTACGACGGGATT
B16: AUAAUGG (DNA:RNA)
RNA: B6 RNA with G25A, G26U, C27A, U28A, U31G
DNA 1: CAATCTGAATTCCGGTCTCCC
DNA 2: TGGTGGCTACGACGGGATT
B17: UACCCCU (DNA:RNA)
RNA: B6 RNA with G25U, G26A, U28C, U29C, G30C
DNA 1: CAATCTGAATTCCGGTCTCCC
DNA 2: TGGTGGCTACGACGGGATT
B18: GAUGAGC (DNA:RNA)
RNA: B6 RNA with G26A, C27U, U28G, U29A, U31C
DNA 1: CAATCTGAATTCCGGTCTCCC
DNA 2: TGGTGGCTACGACGGGATT
B19: CAUUACG (DNA:RNA)
RNA: B1 RNA with C26A, G27U, A28U, A31G
DNA 1: CAATCTGAATTCCGGTCTCCC
DNA 2: TGGTGGCTACGACGGGATT
B20: UUCAGGA (DNA:RNA)
RNA: B1 RNA with C25U, C26U, G27C, A29G, C30G
DNA 1: CAATCTGAATTCCGGTCTCCC
DNA 2: TGGTGGCTACGACGGGATT
B21: GACCCUC (DNA:RNA)
RNA: B6 RNA with G26A, U28C, U29C, G30U, U31C
DNA 1: CAATCTGAATTCCGGTCTCCC
DNA 2: TGGTGGCTACGACGGGATT
B22: GCGUGAC (DNA:RNA)
RNA: B1 RNA with C25G, A28U, A29G, C30A, A31C
DNA 1: CAATCTGAATTCCGGTCTCCC
DNA 2: TGGTGGCTACGACGGGATT
B23: CAUUGGG (DNA:RNA)
RNA: B6 RNA with G25C, G26A, C27U, U29G, U31G
DNA 1: CAATCTGAATTCCGGTCTCCC
DNA 2: TGGTGGCTACGACGGGATT
B24: ACCUGAC (DNA:RNA)
RNA: B6 RNA with G25A, G26C, U29G, G30A, U31C
DNA 1: CAATCTGAATTCCGGTCTCCC
DNA 2: TGGTGGCTACGACGGGATT
B25: AGUCGCG (DNA:RNA)
RNA: B1 RNA with C25A, C26G, G27U, A28C, A29G, A31G
DNA 1: CAATCTGAATTCCGGTCTCCC
DNA 2: TGGTGGCTACGACGGGATT
B26: AUUCGGA (DNA:RNA)
RNA: B1 RNA with C25A, C26U, G27U, A28C, A29G, C30G
DNA 1: CAATCTGAATTCCGGTCTCCC
DNA 2: TGGTGGCTACGACGGGATT
B27: CCGGAAC (DNA:RNA)
RNA: B1 RNA with A28G, C30A, A31C
DNA 1: CAATCTGAATTCCGGTCTCCC
DNA 2: TGGTGGCTACGACGGGATT
B28: CCAUUUG (DNA:RNA)
RNA: B1 RNA with G27A, A28U, A29U, C30U, A31G
DNA 1: CAATCTGAATTCCGGTCTCCC
DNA 2: TGGTGGCTACGACGGGATT
B29: GGAGAAU (DNA:RNA)
RNA: B6 RNA with C27A, U28G, U29A, G30A
DNA 1: CAATCTGAATTCCGGTCTCCC
DNA 2: TGGTGGCTACGACGGGATT
B30: UGCCAGG (DNA:RNA)
RNA: B6 RNA with G25U, U28C, U29A, U31G
DNA 1: CAATCTGAATTCCGGTCTCCC
DNA 2: TGGTGGCTACGACGGGATT
B31: CAUAUAC (DNA:RNA)
RNA: B1 RNA with C26A, G27U, A29U, C30A, A31C
DNA 1: CAATCTGAATTCCGGTCTCCC
DNA 2: TGGTGGCTACGACGGGATT

Substitutions are numbered along the chain they refer to; changes in the protein carry UniProt numbers. The list shows a part of the results.

The experiment concerns the target T1, RBFOX1 RRM (Homo sapiens, UniProt Q9NWB1 109-208).
T1 sequence: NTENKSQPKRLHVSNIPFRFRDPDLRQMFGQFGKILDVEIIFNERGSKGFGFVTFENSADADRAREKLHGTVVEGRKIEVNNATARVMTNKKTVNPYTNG
The experiment in a line: EMSA; HiTS-Eq, 1 nM pool, 10 min; buffer printed only for the single-RNA assays: 10 mM Tris pH 7.5, 150 mM NaCl, 3.4 mM EDTA, 0.001% NP-40, 30 C. Conditions: tags: His6 N-terminal (pET28a); label: 5' 32P. In outline: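 Relative association constants, normalised to the cognate motif, were derived by comparing read counts of each RNA species with those of the control reaction. The RNA sequenced was the free fraction, separated by 8% native PAGE after a 10 min equilibration in 50 µL of 1 nM 5′-radiolabelled RNA (7 randomized nucleotides) with increasing concentrations of purified wild-type or mutant RbFox RRM.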
For the molecule B1, the binding signal is 0.00725 KA relative to UGCAUGU. With B2 the figure was 0.00573 KA relative to UGCAUGU; with B3, 0.00611 KA relative to UGCAUGU; with B4, 0.00713 KA relative to UGCAUGU. With B5 the figure was 0.00521 KA relative to UGCAUGU. In the case of B6 it was 0.0205 KA relative to UGCAUGU; in that of B7, 0.00216 KA relative to UGCAUGU.

Take B8: the binding signal is 0.0121 KA relative to UGCAUGU. With B9 the figure was 0.0188 KA relative to UGCAUGU; with B10, 0.00358 KA relative to UGCAUGU; with B11, 0.0164 KA relative to UGCAUGU. With B12 the figure was 0.00376 KA relative to UGCAUGU. As to B13, the binding signal is 0.0119 KA relative to UGCAUGU. In the case of B14 it was 0.00747 KA relative to UGCAUGU; in that of B15, 0.00324 KA relative to UGCAUGU. With B16 the figure was 0.00564 KA relative to UGCAUGU. On to B17, for which the binding signal was 0.000824 KA relative to UGCAUGU.

B18: the binding signal is 0.0153 KA relative to UGCAUGU. With B19 the figure was 0.00857 KA relative to UGCAUGU.

Consider B20, for which the binding signal is 0.00272 KA relative to UGCAUGU. In the case of B21 it was 0.00192 KA relative to UGCAUGU; in that of B22, 0.00835 KA relative to UGCAUGU; in that of B23, 0.00383 KA relative to UGCAUGU. In the case of B24 it was 0.00816 KA relative to UGCAUGU. With B25 the figure was 0.0136 KA relative to UGCAUGU.

With B26, the binding signal is 0.00416 KA relative to UGCAUGU. In the case of B27 it was 0.014 KA relative to UGCAUGU. With B28 the figure was 0.00751 KA relative to UGCAUGU; with B29, 0.0179 KA relative to UGCAUGU; with B30, 0.0205 KA relative to UGCAUGU.

For B31, the binding signal is 0.000539 KA relative to UGCAUGU.
